Test results from publication PMC4336329 (PLoS ONE, 2015).
Out of some 310,000 compounds screened, about 14,000 (4.5%) showed an effect of 50% or more. The effect is printed as a negative number. This is one part of the list.

target: human ether-à-go-go-related gene (hERG) potassium channel (human, UniProt Q12809); assay: primary screen, population patch clamp on CHO cells stably expressing hERG
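Note: peak tail current of the secondary pulse compared with the same well before compound.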

human ether-à-go-go-related gene (hERG) potassium channel, sequence (Q12809 whole entry, looked up): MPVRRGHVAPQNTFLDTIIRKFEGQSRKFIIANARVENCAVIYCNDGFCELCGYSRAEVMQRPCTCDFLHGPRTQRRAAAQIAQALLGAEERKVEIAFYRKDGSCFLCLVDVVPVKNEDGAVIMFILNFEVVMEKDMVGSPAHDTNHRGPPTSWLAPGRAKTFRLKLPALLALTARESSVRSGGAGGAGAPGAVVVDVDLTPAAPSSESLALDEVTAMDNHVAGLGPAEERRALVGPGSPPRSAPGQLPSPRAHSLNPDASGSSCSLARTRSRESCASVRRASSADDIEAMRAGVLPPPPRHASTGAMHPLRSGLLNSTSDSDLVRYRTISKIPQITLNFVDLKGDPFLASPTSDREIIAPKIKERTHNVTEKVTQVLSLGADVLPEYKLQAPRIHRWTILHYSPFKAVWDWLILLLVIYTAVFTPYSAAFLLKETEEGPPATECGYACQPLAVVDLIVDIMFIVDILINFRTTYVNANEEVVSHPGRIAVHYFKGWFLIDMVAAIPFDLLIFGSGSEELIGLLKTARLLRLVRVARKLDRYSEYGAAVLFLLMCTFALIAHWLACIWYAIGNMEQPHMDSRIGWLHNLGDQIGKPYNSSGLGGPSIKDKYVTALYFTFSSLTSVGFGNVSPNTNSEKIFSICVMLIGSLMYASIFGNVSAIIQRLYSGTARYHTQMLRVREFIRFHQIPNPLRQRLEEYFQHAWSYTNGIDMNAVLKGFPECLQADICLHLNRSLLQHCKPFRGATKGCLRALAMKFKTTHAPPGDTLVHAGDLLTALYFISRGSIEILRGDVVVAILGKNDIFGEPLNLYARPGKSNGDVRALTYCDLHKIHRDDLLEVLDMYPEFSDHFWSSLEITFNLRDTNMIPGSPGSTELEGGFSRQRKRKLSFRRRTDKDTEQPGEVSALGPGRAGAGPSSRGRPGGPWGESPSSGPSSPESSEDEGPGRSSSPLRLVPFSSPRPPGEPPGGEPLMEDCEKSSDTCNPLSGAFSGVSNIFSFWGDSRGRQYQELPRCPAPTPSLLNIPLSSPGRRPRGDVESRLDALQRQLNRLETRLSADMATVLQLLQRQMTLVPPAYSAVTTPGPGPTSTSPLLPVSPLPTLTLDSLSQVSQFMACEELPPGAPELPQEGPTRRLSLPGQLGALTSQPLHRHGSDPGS

Compound | hERG current change (%, negative = inhibition) at 10uM [%]
CC1(C(=O)Nc2c(F)c(F)c(F)c(F)c2F)CC1(Br)Br (stereo not shown) | 2.67
Cc1nn(C)c(Cl)c1C(=O)NCC(=O)O | 7.54
CCOc1ccccc1NC(=O)CN(c1cc(C)cc(C)c1)S(=O)(=O)c1c(C)noc1C | 10.6
O=C(CCC1CCCN(Cc2cccc(Cl)c2)C1)NCc1ccccc1F (stereo not shown) | -50.9
Cc1ccc(Cn2nnc3c(=O)[nH]c(C4CCCN(S(=O)(=O)c5ccccc5F)C4)nc32)cc1 (stereo not shown) | 12.2
Cc1ccc2cc(CN(CC3CCCO3)S(=O)(=O)c3cccc4nsnc34)c(=O)[nH]c2c1 (stereo not shown) | -46.9
COc1ccc(NC(=O)CCCN2C(=O)C(c3ccccc3)Oc3cccnc32)cc1 (stereo not shown) | 5.82
CCc1c(C)nc(N)nc1OCC(F)(F)C(F)F | 1.23
COc1cc(C(=O)Nc2ccc(NC(C)=O)cc2)ccc1OCc1ccccc1 | 24.5
O=C(COC(=O)C12CC3CC(CC(C3)C1)C2)Nc1ccc(OC(F)F)cc1 | -17.3
CCC(=O)N1CCc2cc(Br)cc(S(=O)(=O)N3CCCCCC3)c21 | -28.6
O=C(c1ccccc1)c1ccc(OCC(O)CN2CCN(S(=O)(=O)N3CCCCC3)CC2)cc1 (stereo not shown) | -73.5
COc1cc2c(cc1OC)CN(CC(=O)Nc1ccc3c(c1)OCO3)CC2 | 3.77
O=C(Nc1cccc(C(=O)N2CCOCC2)c1)c1ccc([N+](=O)[O-])cc1 | -15
COC1=CC2(O)CCCC2=CC1=O (stereo not shown) | 9.57
O=C(NCCc1ccccc1)C1CCCN1C(=O)Nc1cccc(Cl)c1 (stereo not shown) | -15.2
COc1ccccc1CN1C(=O)C2CC=CCC2C1=O (stereo not shown) | -14.9
O=S(=O)(N/N=C1/CC(c2ccccc2)Oc2ccccc21)c1ccc(Br)cc1 (stereo not shown) | -2.19
O=C(C1CC1)N1CCC(c2nc(-c3ccc(S(=O)(=O)N4CCCC4)cc3)no2)CC1 | -13
COc1ccc(-c2nn(-c3ccccc3)cc2C(=O)N2CCN(S(=O)(=O)c3cccc(F)c3)CC2)cc1 | -0.945
Clc1ccc(-c2cc(-c3nnc4n3CCCCC4)c3ccccc3n2)cc1 | -42.1
CCOC(=O)N1CCC(=NNC(=O)c2cc3ccccc3cc2O)CC1 | -2.89
O=C(CSc1nnc(-c2ccc(O)cc2)n1-c1ccccc1)CC(=O)Nc1ccccc1 | -5.87
CCOC(=O)c1c(S(=O)(=O)N2CCN(c3ccc(F)cc3)CC2)c(C)n(C)c1C | -4.6
Cc1cc(N2CCOCC2)nc2ccc(Cl)cc12 | 9.25
CCc1cccc2c1NC(=O)C2(O)N1CCCC(C)C1 (stereo not shown) | 12
CC(C)n1c(SCC(=O)NCc2ccco2)nc2c1c(=O)n(C)c(=O)n2C | -3.45
Cc1cccc(C)c1NC(=O)C1c2cccc[n+]2CC(=O)N1Cc1ccc2c(c1)OCO2.[I-] (stereo not shown) | 19

Compound | hERG current change (%, negative = inhibition) at 10uM [%]
CCOC(=O)/C(C#N)=C/c1ccc(OCC(=O)Nc2ccccc2)c(OC)c1 | 5.21
O=C(CSc1nnc(-c2ccco2)n1Cc1ccco1)NCc1ccccc1 | -50.8
O=C(CSc1nc2c(c(=O)n1-c1ccccc1)SCC2)N1CCN(c2ccccc2)CC1 | -76.5
CCN(CC)S(=O)(=O)c1cccc(NC(=O)CNc2cccc(S(=O)(=O)N3CCOCC3)c2)c1 | -15.5
Cc1nc2ccc(NC(=O)C(F)(F)F)cc2o1 | -6.51
Cc1c(NC(=O)CSc2nc3ccccc3n2C)c(=O)n(-c2ccccc2)n1C | -3.98
CC(=O)c1ccc(N2CCN(C(=O)CCC(=O)c3cccs3)CC2)cc1 | -43.3
Cc1nn2c(N3CCN(C(=O)c4ccco4)CC3)cc(C(C)(C)C)nc2c1-c1ccccc1 | 1.48
N#Cc1c(N)nc2c(c1N)CC(CO)O2 (stereo not shown) | 22.6
CCCN1CCC(NC(=O)C2CC=CCC2C(=O)O)CC1 (stereo not shown) | 7.93
FC(F)(F)c1cccc(-c2cc(C3CCNCC3)[nH]n2)c1 | -44.3
Cc1cccc2sc(NNC(=O)c3cc(=O)c4ccccc4o3)nc12 | 10.5
O=Cc1cn(CC(=O)N2CCCCCC2)c2ccccc12 | 7.16
Cl.O=C(CN1CCCCC1)NC1CCc2cc3c(cc21)CCC3 (stereo not shown) | -7.06
CCN(CC(=O)Nc1c(F)cccc1F)C(=O)CCNS(=O)(=O)c1ccc(C)c(C)c1 | 1.26
Cc1ccc(NC(=O)NC2=NN(c3ccccc3)C(=O)/C2=C2/CCCN2C)cc1 | 3.31
C/C(=N/OCC(=O)Nc1ccccc1)c1cccs1 | 3.34
COCCCNC(=S)N/N=C/c1ccc(O)cc1 | 12.2
O=C(CSc1nccc2ccccc12)N1CCN(c2ccccn2)CC1 | -16.5
CC1CCCN(C(=O)c2cc3ccccc3cc2O)C1 (stereo not shown) | -6.88
CN(c1ccccc1)c1ccc(/C=N/NC(=O)CC#N)cc1 | 9.89
COC(CNC(=O)CNC(=S)N(Cc1ccccc1)Cc1cccs1)OC | -7.85
O=C(/C=C/c1c(Cl)cccc1Cl)NCc1ccco1 | 19.9
CCOc1cccc(/C=C2/NC(=O)N(CC(=O)Nc3cccc(C)c3)C2=O)c1O | 15.1
Cc1cc(C(=O)C(C)Sc2cccc[n+]2[O-])c(C)n1-c1ccc(Cl)cc1 (stereo not shown) | -12.8
CN(C)C(=O)COc1ncnc2scc(-c3ccc(F)cc3)c12 | 6.68
CN(C)S(=O)(=O)n1cc(/C=C(\NC(=O)c2ccccc2Cl)C(=O)N2CCCC2)c2ccccc21 | -1.67
